Sequences with one replicate were seen in a single cluster, so their values are uncertain.
Tested on: ATP
Test: switch fluorescence ratio, 500 uM ATP over buffer (Cy3 cluster intensity, sum of 5 cycles each) (fold (ratio)); higher = stronger signal-on switching upon ATP binding; sequences stand for … in TCGTCGGCAGCGTCAGATGTGTATAAGAGACAGTTTTTTTTTTTTTTTTTTTTTTTTT…TC
Settings: aptamer strand: ATP DNA aptamer (quencher-CACCTGGGGGAGTATTGCGGAGGAAGG + anchor), 100 nM annealed; ATP concentration: 500 uM; one replicate
Method in brief: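 Clusters with intensities outside 100-1000 RFU were excluded. The remaining Cy3-labelled switching-strand clusters on a modified Illumina MiSeq flow-cell had been annealed to 100 nM quencher-labelled ATP aptamer and imaged in selection buffer, then after 15 min with 500 uM ATP at 22 °C, for five cycles separated by NaOH stripping and re-annealing. The fluorescence ratio, averaged per switch-domain sequence, is each cluster's summed target-cycle Cy3 intensity over its summed buffer-cycle Cy3 intensity.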
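Further: ATP exposure 15 min at 22 °C before imaging.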

In the case of GTGCTGATTA, the switch fluorescence ratio is reported as 0.994.
Sequence GCAGCTTAAC has a switch fluorescence ratio of 2.72.
For TTTGTATTTC, the switch fluorescence ratio was 0.962.
ACGCTTGTTG showed a switch fluorescence ratio of 1.02.
GGGTGGATAT showed a switch fluorescence ratio of 1.02.
Work on ACGCACGGGG yielded a switch fluorescence ratio of 1.45.
Work on CTCTAGCTGC yielded a switch fluorescence ratio of 2.68.
TCCGAATGGG was tested, and the switch fluorescence ratio was 1.05.
TAATCCGTTG was tested, and the switch fluorescence ratio was 0.989.
Work on TAACAACCGT yielded a switch fluorescence ratio of 0.998.
GCTTGTCTGA gave a switch fluorescence ratio of 0.994.
TACTGCGTCT was tested, and the switch fluorescence ratio was 1.
Sequence CCCTTACT has a switch fluorescence ratio of 1.2.
Work on AAATTTGTAT yielded a switch fluorescence ratio of 1.01.
TGCAAGATTA showed a switch fluorescence ratio of 1.02.
CGCTTATGAC showed a switch fluorescence ratio of 2.2.
For GAGATGTTTG, the switch fluorescence ratio was 0.999.
Work on ATGAAAGATG yielded a switch fluorescence ratio of 1.02.
For AAGATCTAAC, the switch fluorescence ratio was 0.976.
GGTTACCTAA gave a switch fluorescence ratio of 0.979.
CCGACGGGGT gave a switch fluorescence ratio of 5.18.
With AGATAACCC the switch fluorescence ratio was 1.04.
Work on GCTCGGCGCG yielded a switch fluorescence ratio of 0.998.
For ACTGAAGGGA, the switch fluorescence ratio was 1.05.
In the case of ACTCAACTGG, the switch fluorescence ratio is reported as 1.34.
For GGAAGGCAAA, the switch fluorescence ratio was 0.97.
For CGGACCCACT, the switch fluorescence ratio was 1.36.
GAGCAGGTCC was tested, and the switch fluorescence ratio was 0.915.
In the case of ATATGTTTCT, the switch fluorescence ratio is reported as 1.02.
In the case of GCTATAGTAG, the switch fluorescence ratio is reported as 0.985.
With CTGTTTTCCC the switch fluorescence ratio was 1.
Work on CGGCGATTAG yielded a switch fluorescence ratio of 0.978.
TCTCGGAGGC was tested, and the switch fluorescence ratio was 1.09.
With TGTGACCGGC the switch fluorescence ratio was 1.13.
TTGACTGATT showed a switch fluorescence ratio of 1.05.
With ATGGAACATA the switch fluorescence ratio was 1.03.
For TATAATCCTT, the switch fluorescence ratio was 1.07.
CCTAGACGGC gave a switch fluorescence ratio of 0.999.
CTGGGTGTTG was tested, and the switch fluorescence ratio was 1.
GTAAGTATCG gave a switch fluorescence ratio of 1.02.
For ATCTGATGAT, the switch fluorescence ratio was 1.02.
Sequence CTCATCAAAC has a switch fluorescence ratio of 2.41.
AGATATGCGC showed a switch fluorescence ratio of 0.997.
TGGAACATTC showed a switch fluorescence ratio of 1.06.
In the case of GATACTTGTG, the switch fluorescence ratio is reported as 0.983.
AGGGCGGCAC was tested, and the switch fluorescence ratio was 0.992.
Work on GGGCTCAACC yielded a switch fluorescence ratio of 1.02.
In the case of TTTATGGTT, the switch fluorescence ratio is reported as 0.966.
TGGGACAAGT was tested, and the switch fluorescence ratio was 1.04.
For TTGGAGCTAA, the switch fluorescence ratio was 1.33.
With TAAGGAGGGT the switch fluorescence ratio was 0.994.
CTTGTGCGGC was tested, and the switch fluorescence ratio was 0.95.
In the case of ATAGCTAGAG, the switch fluorescence ratio is reported as 1.03.
TGGTTTAATC was tested, and the switch fluorescence ratio was 1.05.
Work on TAGCGAGTGT yielded a switch fluorescence ratio of 1.02.
For AGGATAGAGC, the switch fluorescence ratio was 1.07.
With ATCGCTAGCA the switch fluorescence ratio was 1.01.
In the case of ATTTTGTACT, the switch fluorescence ratio is reported as 1.02.
Sequence GTATTTTTAA has a switch fluorescence ratio of 0.981.
AGATGAACAG gave a switch fluorescence ratio of 0.993.
GCTGTGGCAA was tested, and the switch fluorescence ratio was 0.974.
Sequence TAGGTCATCC has a switch fluorescence ratio of 0.983.
GGGCCAATGG showed a switch fluorescence ratio of 1.
TCCTACGTCG showed a switch fluorescence ratio of 1.62.
For GTCGACTATA, the switch fluorescence ratio was 0.976.
TAGGCAGGAT showed a switch fluorescence ratio of 1.09.
GCAAAACTTT gave a switch fluorescence ratio of 1.02.
Work on TCTAGTTCTT yielded a switch fluorescence ratio of 1.02.
TGTGACTTCA showed a switch fluorescence ratio of 1.
For GGGCTAATAT, the switch fluorescence ratio was 1.04.
TTCATCGGCG was tested, and the switch fluorescence ratio was 1.
In the case of CAAATTGTTT, the switch fluorescence ratio is reported as 0.965.
Sequence GGAGGGTAGG has a switch fluorescence ratio of 1.
In the case of ATCTCCAAAA, the switch fluorescence ratio is reported as 1.62.
Sequence TGGTGACAA has a switch fluorescence ratio of 1.
GGGTCGTTTG showed a switch fluorescence ratio of 0.999.
CTTTGAGTTG was tested, and the switch fluorescence ratio was 0.981.
TTGAAAAGT was tested, and the switch fluorescence ratio was 1.03.
Sequence TTCTGAACGG has a switch fluorescence ratio of 1.
CAAATCCTGC was tested, and the switch fluorescence ratio was 1.04.
GCTTCATGT was tested, and the switch fluorescence ratio was 0.996.
Sequence CGGGCCGGG has a switch fluorescence ratio of 1.12.
TCAAGCAGGC showed a switch fluorescence ratio of 1.27.
ATGAAATCA showed a switch fluorescence ratio of 1.05.
Work on GACGTGTTTA yielded a switch fluorescence ratio of 1.
Sequence CGTAACGAAT has a switch fluorescence ratio of 1.01.
With TCGAGGGTGC the switch fluorescence ratio was 0.947.
For AAGTCACAGC, the switch fluorescence ratio was 1.02.
TCATAGACAG showed a switch fluorescence ratio of 1.01.
With CGTCTAGAGC the switch fluorescence ratio was 0.973.
In the case of GAGAAAGATT, the switch fluorescence ratio is reported as 0.962.
GATTTTAAG gave a switch fluorescence ratio of 0.955.
With GGAGGTTTCA the switch fluorescence ratio was 0.978.
ACAATAGGAA was tested, and the switch fluorescence ratio was 1.01.
Work on GATCAAGCAG yielded a switch fluorescence ratio of 1.01.
Work on TTACGCGGAC yielded a switch fluorescence ratio of 1.45.
In the case of GGCACGTTT, the switch fluorescence ratio is reported as 0.988.
In the case of CGGCTATGGA, the switch fluorescence ratio is reported as 1.02.
For GCATTCCAAC, the switch fluorescence ratio was 1.1.
In the case of CGCTGGTTCT, the switch fluorescence ratio is reported as 0.983.
GAACGTCCGA gave a switch fluorescence ratio of 1.07.
GAGAAGTGCC gave a switch fluorescence ratio of 1.01.
ACGGGGATTA was tested, and the switch fluorescence ratio was 1.02.
ATTCTGTTT showed a switch fluorescence ratio of 0.989.
With TTTTGTATGT the switch fluorescence ratio was 1.01.
GTAAATGAAA showed a switch fluorescence ratio of 1.04.
With TCACCAAAC the switch fluorescence ratio was 1.05.
TGCCGCAGCG showed a switch fluorescence ratio of 1.41.
Sequence TAAATCTAGT has a switch fluorescence ratio of 1.07.
For CCAGTTCCA, the switch fluorescence ratio was 1.02.
Sequence TACATCCTCG has a switch fluorescence ratio of 1.11.
Work on GTTTGGACGA yielded a switch fluorescence ratio of 0.969.
Sequence TCTGGAAGCG has a switch fluorescence ratio of 0.995.
In the case of ACCCCATGGT, the switch fluorescence ratio is reported as 1.39.
Sequence TCATAACGAG has a switch fluorescence ratio of 1.01.
In the case of TTTGTCTTCT, the switch fluorescence ratio is reported as 0.991.
TTTGCAGTGC showed a switch fluorescence ratio of 1.4.
Work on TTCTTCGGTG yielded a switch fluorescence ratio of 0.992.
Sequence AGGCTTCAG has a switch fluorescence ratio of 1.
Sequence ATGGCGGTGT has a switch fluorescence ratio of 1.02.
ACATTAATGG showed a switch fluorescence ratio of 1.02.
For CGCTACGGTA, the switch fluorescence ratio was 1.13.
For GAACCAGACG, the switch fluorescence ratio was 1.11.
TTAACTGAGA showed a switch fluorescence ratio of 1.03.
For GAAACGAAAA, the switch fluorescence ratio was 0.947.
For AGGACAGAGT, the switch fluorescence ratio was 0.955.
For CCATGAAACG, the switch fluorescence ratio was 0.996.
ACTCGATGGG showed a switch fluorescence ratio of 1.
For GAAAATACCC, the switch fluorescence ratio was 0.969.
In the case of TTTAACGTTA, the switch fluorescence ratio is reported as 1.03.
For CTAGGGGTCC, the switch fluorescence ratio was 1.02.
Work on CTCTGGTC yielded a switch fluorescence ratio of 0.979.
In the case of TCTTTGAGCT, the switch fluorescence ratio is reported as 1.01.
GATCAGACTG gave a switch fluorescence ratio of 1.13.
With GAACTCTGTT the switch fluorescence ratio was 1.01.
In the case of GCTGTTATGC, the switch fluorescence ratio is reported as 0.984.
With AAACGGATCT the switch fluorescence ratio was 0.986.
For GCGTACCAAG, the switch fluorescence ratio was 1.02.
CCTTGCAACC was tested, and the switch fluorescence ratio was 3.7.
For AAGTGATTGA, the switch fluorescence ratio was 1.
In the case of ATCGAAGGAG, the switch fluorescence ratio is reported as 0.989.
With GAGAGTGGCG the switch fluorescence ratio was 0.943.
Work on GACGCCACGT yielded a switch fluorescence ratio of 1.53.
With GCCCACCGTG the switch fluorescence ratio was 1.14.
In the case of ATGAATTGG, the switch fluorescence ratio is reported as 0.995.
Work on TTTCCTGGTT yielded a switch fluorescence ratio of 1.02.
For GAGAGTGGGT, the switch fluorescence ratio was 0.988.
In the case of TCAGTAATTA, the switch fluorescence ratio is reported as 1.03.
In the case of GCCGCGAAAA, the switch fluorescence ratio is reported as 1.04.
TAAGGCGTCG gave a switch fluorescence ratio of 0.991.
For GCGATGAGAT, the switch fluorescence ratio was 1.02.
For GGATAAAGCA, the switch fluorescence ratio was 1.07.
For GCACACTAAT, the switch fluorescence ratio was 1.08.
Sequence GGTAAAAAGC has a switch fluorescence ratio of 1.04.
Work on ACTGTTTCAT yielded a switch fluorescence ratio of 0.986.
Sequence GTGCTTGGAT has a switch fluorescence ratio of 1.01.
With TCGGGGTTG the switch fluorescence ratio was 0.977.
